PubChem BioAssay AID662 (National Center for Advancing Translational Sciences (NCATS), 2007)
Out of some 71,000 compounds screened, about 1,800 (2.5%) were called active. The inconclusive results got no clear call from the source; some entries with a clear call stand among them for comparison. Calls come from the whole dose curve; as a rule, active = well fitted activation curve with a large enough effect in the signal ratio, with a control signal flat (not every such curve was filed as active); inconclusive = small, poorly fitted or top-dose-only effect, or effect the other way, or a change in a side signal; inactive = flat fitted curve, though single readings scatter; the % refers to the signal ratio. A potency beside an inconclusive call is a rough fit, not a confirmed value.

assay: Cell signaling CRE-BLA (Fsk stim); conditions: CHO CRE-bla reporter (cAMP response element driving beta-lactamase), forskolin EC10, beta-lactamase ratio; activity change, negative = inhibition: at 38.2 µM (top of the series) unless noted; for activity change, negative = inhibition: % of control where 0% means no effect
Procedure, shortened: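 Using CellSensor CRE-bla CHO cells in Opti-MEM with 0.5% dialyzed FBS, compounds were titrated with EC10 NKH 477 for 3 h at 37 °C. CCF4 ratio (460/530 nm) gave %Activity; AC50 derived.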
Potency is the fitted concentration of half-maximal effect; tags give direction and shape of the fitted curve.

SMILES | activity change, negative = inhibition | Potency
O=S(=O)(c1ccccc1)c1ccc(NCc2ccco2)cc1 | inconclusive: 25.4% [at 7.6 µM] | –
COC(=O)[C@@]1(Cc2ccccc2)[C@H]2c3cc(C(=O)N(C)C)n(CCSCCO)c3C[C@H]2CN1C(=O)c1ccccc1 | inactive: -10.9% | –
Cc1ccc2cc3cc(C(=O)N4CC(C)CC(C)C4)oc3nc2c1 (stereo unspecified) | – | inconclusive: 12.6 µM [rising, partial curve]
CCOC(=O)c1ccc(N2C(=O)c3n[nH]c(C)c3C2c2ccccc2)cc1 (stereo unspecified) | inconclusive: 29.5% | –
c1cnc2c(SCc3ccc(-c4nnco4)cc3)cccc2c1 | – | inconclusive: 3.16 µM [rising, partial curve]
COc1ccc(OC)c(C(=O)CSc2nc3cccnc3n2C)c1 | – | inconclusive: 12.6 µM [rising, partial curve]
CN1CCO[C@H](c2ccccc2)c2ccccc2C1 | inactive: -3.6% [at 17.1 µM] | –
CC(=O)Nc1c(C(=O)N2CCOCC2)sc2nc3c(cc12)COC(C)(C)C3 | inconclusive: 9.82% | –
CCSC(C)CC1C/C(=N/O)c2c(CC)noc2C1 (stereo unspecified) | inconclusive: 21.7% | –
CCOc1ccc(N2C(=O)CC(Sc3nc(C)cc(C)c3C#N)C2=O)cc1 (stereo unspecified) | inactive: 7.1% | –
CN1CCN(c2oc(COc3ccc(-c4ccccc4)cc3)nc2C#N)CC1 | – | inconclusive: 0.501 µM [rising, full curve]
O=C(NCCCN1CCOCC1)c1ccc(Br)cc1 | inconclusive: 5.68% [at 7.6 µM] | –
COc1ccc(N(CC(=O)O)N=O)cc1 | inactive: 15.8% [at 7.6 µM] | –
Cc1c(Cc2ccccc2)c(=O)oc2c(C)c(OCc3nn[nH]n3)ccc12 | inactive: 4.14% | –
O=S(=O)(c1cccc(-c2nnc(SC(F)F)n2-c2ccccc2)c1)N1CCCCC1 | – | inconclusive: 12.6 µM [rising, single point]
CCOC(=O)c1cnc2c(C(=O)OC)cccc2c1NCc1ccco1 | – | inconclusive: 10 µM [rising, partial curve]
CS(=O)(=O)Nc1ccc(C(=O)NCc2ccco2)cc1 | inconclusive: -17.4% | –
O=C(NC1CCN(Cc2ccccc2)CC1)C1CCCN(S(=O)(=O)c2cccc3nonc23)C1 (stereo unspecified) | inactive: 4.41% | –
CCN(CC)CCn1c2ccccc2c2cnc(N=CN(C)C)c(C#N)c21 | – | inconclusive: 10 µM [rising, single point]
Cc1sc2ncnc(SCC(=O)N3CCCC3=O)c2c1C | – | inconclusive: 10 µM [rising, partial curve]
Cc1nc2ccc(S(=O)(=O)NCC(=O)O)cc2s1 | inconclusive: 3.4% | –
COc1ccc([N+](=O)[O-])cc1N | inactive: -1.83% | –
COc1ccc(CCNc2oc(-c3ccc(C)cc3)nc2C#N)cc1OC | – | inconclusive: 5.01 µM [rising, partial curve]
N#Cc1nc(Cc2cccc3ccccc23)oc1NCc1ccco1 | inconclusive: 18.4% | –
O=S(=O)(c1cccc(-c2cn3cc(Cl)ccc3n2)c1)N1CCOCC1 | – | inconclusive: 3.16 µM [rising, single point]
c1ccc2c(-n3ccnc3)nc(-c3ccoc3)nc2c1 | – | active: 3.16 µM

SMILES | activity change, negative = inhibition | Potency
Cc1cc(=O)oc2cc(O)cc(O)c12 | inconclusive: 25% | –
CCCCn1c2nc3ccccc3nc2c2c(=O)n(CCC)cnc21 | inconclusive: 5.89% | –
O=c1[nH]cnc2nn(-c3ccccc3)nc12 | inconclusive: -14.8% | –
O=c1c(-c2ccccc2)nc2cncnc2n1C1CC1 | – | inconclusive: 15.8 µM [rising, single point]
Oc1ccccc1N=Cc1ccc[nH]1 | – | inconclusive: 12.6 µM [rising, single point]
CCN(CC)c1nc2ccccc2n2cnnc12 | – | active: 12.6 µM
COc1ccc(C2C=C(c3ccc(C)c(C)c3)Nc3ncnn32)c(OC)c1OC (stereo unspecified) | inconclusive: 18% [fluorescent] | –
CCOC(=O)CCP(=O)(O)C(O)c1ccc(OC)cc1 (stereo unspecified) | – | inconclusive: 3.16 µM [rising, single point]
CCC(SC1=Nc2ccccc2C2=NC(CC(C)C)C(=O)N12)C(=O)Nc1ccc2c(c1)OCO2 (stereo unspecified) | inconclusive: 63.2% | –
CC(C)CC(=O)Nc1cccc(-c2nc3ccccc3o2)c1 | – | inconclusive: 10 µM [rising, partial curve]
CC(C)[C@H](NC(=O)OC(C)(C)C)c1nnc(S(=O)(=O)Cc2c(F)cccc2Cl)o1 | – | inconclusive: 3.98 µM [falling, partial curve]
CC[C@H]1C(=O)OC[C@H]1Cc1cncn1C | inactive | –
Cc1ccc(-n2c(=O)c3sccc3n(CC(=O)N3CCCC3)c2=O)cc1 | inconclusive: -5.1% | –
Cc1ccc2c(CC(=O)OCc3nc(N)nc(Nc4ccccc4C)n3)coc2c1 | – | inconclusive: 5.01 µM [falling, single point]
NS(=O)(=O)c1ccc(CCNC(=O)Nc2ccc(Cl)cc2)cc1 | inconclusive: 5.28% [at 7.6 µM] | –
Cc1onc(-c2ccccc2Cl)c1C(=O)NCCn1c(C)cc2ccccc21 | inactive: -14.8% | –
CCC[C@@H]1C[C@@]1(CCC)C(NS(=O)(=O)c1cccc2cccnc12)c1ccc(Cl)cc1 (stereo partly specified) | inconclusive: 1.48% | –
CCOC(=O)CSc1nnc(CNC(=O)c2ccc(OC)c(OC)c2)n1C | – | inconclusive: 5.01 µM [falling, single point]
COc1ccccc1C(OC(=O)c1cccs1)C(=O)NCc1ccco1 (stereo unspecified) | – | inconclusive: 0.126 µM [falling, full curve]
Cc1ccccc1-n1nc2c(c1NC(=O)c1ccc(Br)o1)CSC2 | inactive: -15% | –
COCC(=O)Nc1nc(-c2ccccc2)c(C)s1 | inconclusive: 16.2% | –
CCN(CC)c1ccc2c(C)cc(=O)oc2c1 | – | inconclusive: 15.8 µM [rising, partial curve]
Cc1ccccc1C(=O)Nc1ccc2nc3n(c(=O)c2c1)CCC3 | – | active: 12.6 µM
CCOC(=O)c1ccc(-c2c(C(=O)OCC)oc3cc(O)c(CC)cc3c2=O)o1 | – | inconclusive: 6.31 µM [falling, partial curve]
COCCCN1C(=O)c2[nH]nc(-c3cc(C)cc(C)c3O)c2C1c1ccc(O)c(OC)c1 (stereo unspecified) | – | active: 10 µM
